From publication PMC4336329 (PLoS ONE, 2015)
The campaign covered roughly 310,000 compounds. About 2,200 (0.71%) showed an effect of 50% or more. Effects have a minus sign here. Some of the results follow.

target: human ether-à-go-go-related gene (hERG) potassium channel (human, UniProt Q12809); experiment: primary screen, population patch clamp on CHO cells stably expressing hERG
Sequence (Q12809 whole entry, looked up): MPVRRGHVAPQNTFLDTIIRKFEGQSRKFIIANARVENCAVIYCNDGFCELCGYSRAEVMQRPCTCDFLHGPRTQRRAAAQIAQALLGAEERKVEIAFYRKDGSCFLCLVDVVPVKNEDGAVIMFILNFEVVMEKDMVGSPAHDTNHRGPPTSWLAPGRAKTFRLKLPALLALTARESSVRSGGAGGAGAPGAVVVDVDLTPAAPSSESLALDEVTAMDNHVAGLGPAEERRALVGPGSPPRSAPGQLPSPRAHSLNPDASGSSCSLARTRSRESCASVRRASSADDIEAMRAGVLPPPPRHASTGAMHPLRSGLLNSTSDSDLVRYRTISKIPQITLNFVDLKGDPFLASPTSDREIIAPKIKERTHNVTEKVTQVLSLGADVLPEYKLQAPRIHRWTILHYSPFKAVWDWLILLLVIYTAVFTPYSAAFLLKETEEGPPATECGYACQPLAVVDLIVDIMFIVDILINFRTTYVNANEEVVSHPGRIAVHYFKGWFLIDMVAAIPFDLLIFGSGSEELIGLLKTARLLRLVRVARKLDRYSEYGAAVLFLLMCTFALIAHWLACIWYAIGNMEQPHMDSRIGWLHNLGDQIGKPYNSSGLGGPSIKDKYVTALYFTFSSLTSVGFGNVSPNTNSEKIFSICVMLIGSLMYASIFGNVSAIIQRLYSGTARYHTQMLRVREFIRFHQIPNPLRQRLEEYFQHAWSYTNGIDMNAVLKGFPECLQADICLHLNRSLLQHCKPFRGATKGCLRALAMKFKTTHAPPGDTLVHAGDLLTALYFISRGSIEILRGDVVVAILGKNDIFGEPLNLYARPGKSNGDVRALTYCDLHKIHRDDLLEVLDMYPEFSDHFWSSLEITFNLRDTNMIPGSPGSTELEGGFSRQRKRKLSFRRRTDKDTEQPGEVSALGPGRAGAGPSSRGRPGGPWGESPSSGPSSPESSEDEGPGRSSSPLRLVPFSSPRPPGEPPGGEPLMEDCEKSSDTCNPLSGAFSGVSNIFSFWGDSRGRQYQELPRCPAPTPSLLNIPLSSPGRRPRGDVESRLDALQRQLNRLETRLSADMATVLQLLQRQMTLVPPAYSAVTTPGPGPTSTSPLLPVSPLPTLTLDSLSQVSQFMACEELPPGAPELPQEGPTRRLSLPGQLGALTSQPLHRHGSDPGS

Going from `CCN(CC)S(=O)(=O)c1ccc2nc(NC(=O)c3cccs3)sc2c1` to `CCn1c(C(C)NC(=O)c2cccs2)nc2ccccc21` (centres unmarked), the “hERG current change (%, negative = inhibition) at 1uM” value rises from 9.43% to 11.5%.

Compared with `CC(N=Cc1c(O)n(C2CC2)c(=S)[nH]c1=O)c1ccccc1` (centres unmarked), `COc1ccccc1/C=C1\SC(=S)N(C(C(=O)O)c2ccccc2)C1=O` (centres unmarked) is lower in “hERG current change (%, negative = inhibition) at 1uM” value: 16.9% for the first, -7.25% for the second.

Compared with `Cc1nc2c(o1)CCc1ccccc1C2N1CCN(C)CC1.O=C([O-])/C=C\C(=O)[O-]` (centres unmarked), `CCOC(=O)N1CCN(C(=O)c2ccccc2Oc2ccccc2)CC1` is lower in “hERG current change (%, negative = inhibition) at 1uM” value: 15.1% for the first, 7.71% for the second.

First: Cc1sc2nc(CN3CCCC3)nc(N3CCN(S(=O)(=O)c4ccccc4)CC3)c2c1C
Second: COc1ccc(S(=O)(=O)N2CCCCCC2)cc1
The “hERG current change (%, negative = inhibition) at 1uM” value of the first is lower: -19.4% for the first, 9.7% for the second.

Going from `CC(=O)c1ccc(NC(=O)c2cn(-c3ccccc3)nc2-c2ccncc2)cc1` to `O=C(O)/C=C\C(=O)Nc1ccc(Oc2ccccc2)cc1`, the “hERG current change (%, negative = inhibition) at 1uM” value rises from -5.85% to 11.6%.

First: COc1cccc(CNc2ccc3[nH]c(=O)[nH]c3c2)c1OCc1ccccc1
Second: Cc1ccc(NP(=O)(Oc2ccccc2F)Oc2ccccc2F)cc1C
The “hERG current change (%, negative = inhibition) at 1uM” value of the first is higher: 15.8% for the first, 15.4% for the second.

Going from `CCS(=O)(=O)N1CCCC(C(=O)NC2CCCC2)C1` (centres unmarked) to `Cc1ccc(CCNC(=O)C2CCCN(S(=O)(=O)c3cccs3)C2)cc1` (centres unmarked), the “hERG current change (%, negative = inhibition) at 1uM” value rises from -4.02% to 6.08%.

Going from `CCNC(=S)Nc1ccc(OCc2nc3ccccc3s2)cc1` to `COc1ccc(NC(=S)NC(=O)/C=C/c2ccco2)cc1`, the “hERG current change (%, negative = inhibition) at 1uM” value falls from 18.1% to 1.24%.

Going from `CC(=O)c1c(C)[nH]c(C)c1C(C)=O` to `COc1ccc(CNC(=O)c2[nH]c(C)c(C(C)=O)c2C)cc1`, the “hERG current change (%, negative = inhibition) at 1uM” value rises from 8.49% to 9.51%.

Compared with `Nc1nc(-c2c[nH]c3ccccc23)cs1`, `O=S(=O)(Nc1ccc2cn[nH]c2c1)c1ccccc1` is lower in “hERG current change (%, negative = inhibition) at 1uM” value: 13.7% for the first, 3.04% for the second.

Compared with `COc1ccc(OC)c(N/C=C2/CCCCC2=O)c1`, `CCC(=O)Nc1cc(-c2cc3ccccc3oc2=O)ccc1OC` is higher in “hERG current change (%, negative = inhibition) at 1uM” value: -3.67% for the first, 10.6% for the second.

Going from `COc1ccc(N=C2SC(CC(=O)Nc3ccccc3)C(=O)N2Cc2ccccn2)cc1` (centres unmarked) to `COc1cccc(CCN2C(=O)C(=O)N([C@@H](CNCc3ccccc3)Cc3ccccc3F)C[C@@H]2C(C)(C)C)c1`, the “hERG current change (%, negative = inhibition) at 1uM” value falls from 5.54% to 4.08%.

First: CCOC(=O)N1CCN(CC(=O)Nc2c(C(=O)OC)[nH]c3cc(C)ccc23)CC1
Second: CCc1ccccc1NC(=O)CN1CCN(C(=O)CNC(=O)c2ccccc2F)CC1
The “hERG current change (%, negative = inhibition) at 1uM” value of the first is lower: -6.12% for the first, -3.6% for the second.

Going from `CCOC(=O)Cc1cc(=O)c2cc(C)ccc2[nH]1` to `CCc1cc(Cn2nc(-c3ccccc3C)cc2C(=O)O)on1`, the “hERG current change (%, negative = inhibition) at 1uM” value falls from 14.1% to 8.83%.

Compared with `CC(=O)NN1C(=O)/C(=C\c2ccc(O)cc2)SC1=S`, `CSc1nc(C)c2c(n1)N(c1ccc(O)cc1)CC2` is lower in “hERG current change (%, negative = inhibition) at 1uM” value: 6.7% for the first, 6.49% for the second.

Going from `O=C(NC1(C(F)(F)F)N=C(c2ccccc2)NC1=O)c1ccccc1F` (centres unmarked) to `CS(=O)(=O)c1cccc(C(=O)NCc2ccccc2)c1`, the “hERG current change (%, negative = inhibition) at 1uM” value falls from 10.6% to 8.73%.

Compared with `O=C(Cn1cccc1C(=O)c1ccccc1)NCCc1ccccc1`, `CN(CCCNC(=O)C1CCC(CNS(=O)(=O)c2ccccc2)CC1)Cc1ccccc1` (centres unmarked) is lower in “hERG current change (%, negative = inhibition) at 1uM” value: 18.2% for the first, 6.77% for the second.

Compared with `O=[N+]([O-])c1ccc(S(=O)(=O)Nc2ccc(-c3ccc(N4CCOCC4)nn3)cc2)cc1`, `Cc1c(NC(=O)c2ccc(S(=O)(=O)N3CCOCC3)cc2)cccc1[N+](=O)[O-]` is higher in “hERG current change (%, negative = inhibition) at 1uM” value: 3.23% for the first, 7.56% for the second.

Going from `COC(=O)c1c(N)sc(C(=O)N2CCOCC2)c1C` to `COc1ccc(NC(=O)C(=O)NCCN2CCN(C(=O)c3cccs3)CC2)cc1`, the “hERG current change (%, negative = inhibition) at 1uM” value falls from 6.5% to -7.77%.

Compared with `CCc1cccc(CC)c1NC(=O)C1CC(=O)N(c2ccc3c(c2)OCCO3)C1` (centres unmarked), `COc1cccc(N2CCN(C(=O)CCNS(=O)(=O)c3ccc4c(c3)c(=O)n(C)c(=O)n4C)CC2)c1` is lower in “hERG current change (%, negative = inhibition) at 1uM” value: 23.2% for the first, 15.8% for the second.

Compared with `CCCCCn1c(=O)[nH]c2cc(C(=O)N3CCN(c4ccccc4F)CC3)ccc2c1=O`, `CCOc1ccc(C(=O)CCC(=O)N2CCN(S(=O)(=O)c3cccc(F)c3)CC2)cc1` is lower in “hERG current change (%, negative = inhibition) at 1uM” value: 12.2% for the first, 0.394% for the second.

Going from `CN(C)S(=O)(=O)c1cc(NC(=O)COC(=O)/C=C/c2ccco2)ccc1Cl` to `CCn1c(SCC(=O)NC(=O)NCc2ccco2)nnc1-c1cccs1`, the “hERG current change (%, negative = inhibition) at 1uM” value rises from 6.25% to 10%.

First: Cc1ccccc1NC(=O)Cc1nc(COC(=O)COc2cccc(C)c2C)cs1
Second: COc1nnc(-c2ccc(C)cc2)c2ccccc12
The “hERG current change (%, negative = inhibition) at 1uM” value of the first is higher: 18.1% for the first, 13.6% for the second.

Compared with `Cc1ccc(N2C(=O)C(c3c(C)[nH]n(-c4ccccc4)c3=O)(C(F)(F)F)C3=C2CC(C)(C)CC3=O)cc1` (centres unmarked), `Cc1c(C(c2ccc(Br)cc2)c2c(C)n(C)n(-c3ccccc3)c2=O)c(=O)n(-c2ccccc2)n1C` is lower in “hERG current change (%, negative = inhibition) at 1uM” value: 17.7% for the first, 15.6% for the second.

Compared with `Cn1c(=O)c2c(nc(NCc3ccco3)n2C)n(C)c1=O`, `CC(C)CCn1cnc2c([nH]c3cccc(Cl)c32)c1=O` is lower in “hERG current change (%, negative = inhibition) at 1uM” value: 13.4% for the first, 8.78% for the second.

First: O=C(NCCCN1CCCCCC1)c1ccc2c(Cl)c3c(nc2c1)CCCC3
Second: C=CCNC(=O)c1ccc2nccnc2c1
The “hERG current change (%, negative = inhibition) at 1uM” value of the first is lower: -12% for the first, 6.99% for the second.

Compared with `Cl.O=C(c1ccco1)N1CCN(Cc2nnnn2CC2CCCO2)CC1` (centres unmarked), `COc1ccc(F)c(CN2CCC(n3nccc3NC(=O)C3CCOC3)CC2)c1` (centres unmarked) is higher in “hERG current change (%, negative = inhibition) at 1uM” value: 5.26% for the first, 11.3% for the second.

First: O=C(NC1CCCC1)C(=O)N(c1ccccc1F)C(C(=O)NCC1CCCO1)c1cccs1 (centres unmarked)
Second: O=C(NNC(=O)c1ccc(F)cc1F)c1ccc(-n2cnnn2)cc1
The “hERG current change (%, negative = inhibition) at 1uM” value of the first is lower: 4.16% for the first, 8.27% for the second.
